In the RNAGym collection of RNA variant scans (doi:10.1093/nar/gkz1192):
The source gives no read counts; variants with many changes may rest on few reads.

B1: CPEB3 Ribozyme (parent)
chain: UAACAGGGGGCCACAGCAGAAGCGUUCACGUCGCAGCCCCUGUCAGAUUCUGGUGAAUCUGCGAAUUCUGCUGUAUAUCUC

Variants of: B1
Assay: self-cleavage, relative activity (ratio to wild type); higher = more cleavage; in vitro, sequencing
Procedure, shortened: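 Barcoded CPEB3 ribozyme mutants, produced by rounds of error-prone PCR, self-cleaved while being transcribed with T7 RNA polymerase for 5 hours at 37°C and during a subsequent 15 min DNase I step before EDTA was added. Sequencing of template-switched cDNA on Illumina gave cleaved and total reads, and DNA sequencing assigned barcodes to variants. Each variant's relative activity is its cleaved/total read fraction divided by the unmutated ribozyme's fraction, averaged across three batches. A variant needed a minimum of 5 reads.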

Variant | self-cleavage
A3G A28G A45G A57G | 0.4
A3G A28G A47U A65G | 0.06
A3G A28G A57G A65G | 0.54
A3G A28G A57G U60C | 0.06
A3G A28G C34G G55U | 0.42
A3G A28G G30A | 0.38
A3G A28G G33A A35G U78C | 0.08
A3G A28G G36A U67A U78A | 0.2
A3G A28G U48C U51A A57G U74C | 0.9
A3G A28G U49C U80C | 0.37
A3G A28G U51C U76C | 0.54
A3G A28G U60C U69A | 0.15
A3G A28G U76C | 0.96
A3G A28U A35G A64C U72A U76C | 0.24
A3G A28U A35G U54C A64G U72C A77G | 1.24
A3G A28U A35G U60C U78C | 0.59
A3G A28U A56U U58C | 0.22
A3G A28U A57G A64U U72A | 0.22
A3G A28U A64U | 0.17
A3G A28U C37A G46A A47U U76A | 0.05
A3G A28U G63C U72A | 0.55
A3G A28U U41A G63A | 0.16
A3G A28U U41C U67G | 0.19
A3G A28U U48C U51C U60C A77G | 0.14

Variant | self-cleavage
A3G A28U U49C U67C | 0.11
A3G A35C U54C | 0.96
A3G A35G A47G U78C | 1.18
A3G A35G A47U U48C U69C | 0.28
A3G A35G A56G | 1.2
A3G A35G A56U G63U | 1.16
A3G A35G A57U | 1.24
A3G A35G C38U A45G | 1.27
A3G A35G C44U U80C | 1.19
A3G A35G G36A A64U U67C | 0.22
A3G A35G U41A | 0.28
A3G A35G U41A A47U A57G | 0.42
A3G A35G U41C U72C | 1.24
A3G A35G U43C U48C U76G | 0.57
A3G A35G U54A A56G A64U | 1.11
A3G A35G U54G | 1.28
A3G A35G U58C | 1.15
A3G A35G U74C U76C | 1.2
A3G A35G U76A | 1.29
A3G A35G U76C | 1.16
A3G A35U A56G | 0.39
A3G A35U C62G U72A | 0
A3G A35U U41A | 0.29
A3G A35U U41C U43C U49C | 0.29

Variant | self-cleavage
A3G A35U U43C A45G A57C U60G | 0.08
A3G A35U U48C G52A U58C U67C C68G | 0.25
A3G A35U U54C U69C | 0.22
A3G A35U U67C U78C | 0.14
A3G A45C A56G A75G U80C | 0.24
A3G A45C U54C U58C U80C | 0.28
A3G A45C U58C | 0.14
A3G A45C U72C | 0.65
A3G A45G A57U U69C U72A U80C | 0.23
A3G A45G A77G | 0.97
A3G A45G U51A | 0.57
A3G A45G U51A A56G | 0.38
A3G A45G U58G U78G | 0.31
A3G A45G U60C G70C | 0.2
A3G A45U A56C | 0.25
A3G A45U G61A C62A | 0.13
A3G A45U G63A | 0.19
A3G A45U U49C | 0.1
A3G A47G A65G U66C | 0.28
A3G A47G A77G | 0.84
A3G A47G U51C G52A U54A | 0.73
A3G A47G U54A A56C U60C U80A | 0.32
A3G A47G U69C | 0.6
A3G A47U A56G U72C | 0.46

Variant | self-cleavage
A3G A56G A57G | 0.44
A3G A56G A64U | 0.35
A3G A56G A65G | 0.27
A3G A56G U58G | 0.3
A3G A56G U72C | 0.89
A3G A56G U76A | 0.87
A3G A57G U76C | 0.96
A3G A57U U69C U80C | 0.34
A3G A64G A77U | 0.74
A3G A64G U74A | 1.15
A3G A65U U72G | 0.25
A3G A75G U80C | 0.78
A3G A77U U80C | 0.99
A3G C4A A15U A20U U69C | 0.16
A3G C4A U69C U78A | 0.98
A3G C4G C17G A28C | 0.48
A3G C4U A20U A45C | 0.39
A3G C4U A21G U49C | 0.61
A3G C4U A28G A35U | 0.68
A3G C4U A45G | 1.06
A3G C4U A56U U66A U72A | 0.52
A3G C4U A64G U72C | 1.13
A3G C4U C37U C40A U51C U67C | 0.01
A3G C4U U26A A56G C62U | 0.27

Variant | self-cleavage
A3G C4U U31G A45U U54A U60C | 0.29
A3G C4U U49A A57G | 0.55
A3G C4U U51A | 1.17
A3G C11A A18C A20G A47G U60C | 0.07
A3G C11A A20G U25A U48C | 0.11
A3G C11A A28U | 0.57
A3G C11A U26A A65U | 0.05
A3G C11A U31C U80C | 0.59
A3G C11G A47G U48C U54C | 0.09
A3G C11G A47G U78A | 0.27
A3G C11G G16U A28G U48C | 0.27
A3G C11G U25C | 0.39
A3G C11G U25C A28U U60C U78C | 0.08
A3G C11G U25C U31A | 0.07
A3G C11G U25C U58C U69A | 0.07
A3G C11U A15G U51C C62U A64U | 0.14
A3G C11U A15U | 0.43
A3G C11U A21U C39A U58C | 0.07
A3G C11U G33A A65G U80C | 0.09
A3G C11U U25A U74C | 0.53
A3G C11U U26A U49C U72C U80A | 0.06
A3G C11U U66C U80C | 0.12
A3G C12A A18U U54C A57G U58A U80C | 0.14
A3G C12A A45U U49C U66C | 0.24

Variant | self-cleavage
A3G C12A G22A U31C U41A U78C U80C | 0.05
A3G C12A U25C U49C U54C A57U | 0.06
A3G C12G A56U | 0.49
A3G C12U A13U A35G U60C U69C | 0.37
A3G C12U A15G A20G U49C U69C | 0.17
A3G C12U C44A U60C | 0.56
A3G C12U G36C U41C U58A A77G | 0.06
A3G C12U U25C U41A U51A U72C | 0.3
A3G C12U U31C C34U A56G U58A U66A | 0.04
A3G C12U U41C U66G U78A | 0.92
A3G C12U U49C U69C | 0.31
A3G C14A C40G U43C U66C U80C | 0.07
A3G C14A G36C U41A G53U C62U U66G | 0.17
A3G C14U A18G | 0.88
A3G C14U A20G U25C A65G | 0.1
A3G C14U A21G A45G U58A | 0.11
A3G C14U G19C U76C U78A | 0.49
A3G C14U U51A A56G | 0.92
A3G C17A G42A A45U | 0.19
A3G C17G A18G A45G A56U A77G | 0.07
A3G C17G G22C U69A | 0.1
A3G C17G U25C C29A U51A U66C | 0.08
A3G C17U A21C U31C A35G U54A | 0.12
A3G C17U A35G A64G | 0.69

Variant | self-cleavage
A3G C17U A35G U58A | 0.98
A3G C17U A35G U76C | 1.05
A3G C17U U41C A64G | 0.32
A3G C17U U49A U58C C62U A77G | 0.11
A3G C23A A57G | 0.2
A3G C23A A64U | 0.08
A3G C23A U25C U66C | 0.22
A3G C23G U41C U48C U78C | 0.07
A3G C23U A28U C37G | 0.21
A3G C23U A77C | 0.2
A3G C23U U25A A28U U60A | 0.07
A3G C23U U31A U41C U76C | 0.65
A3G C23U U41C U69A | 0.33
A3G C23U U43A U54C A64U U69A C81U | 0.08
A3G C23U U54G | 0.5
A3G C27A U76C | 0.44
A3G C27G U41C U54A A65C U69C C71G | 0.14
A3G C27U A57G | 0.41
A3G C27U A64U | 0.4
A3G C27U U54C U78C | 0.11
A3G C29G U54C U67C | 0.13
A3G C29U A47G A57G | 0.38
A3G C29U C32U | 0.12
